{"source": "PubChem BioAssay AID504832", "about": "(National Center for Advancing Translational Sciences (NCATS), 2011)", "note": "Screen size: about 310,000 compounds; about 18,000 (5.8%) were called active. Inconclusive results, whose numbers are uncertain, are shown with a selection of clear calls. Calls come from the whole dose curve; as a rule, active = well fitted inhibition curve with a large enough effect; inconclusive = small, poorly fitted or top-dose-only effect, or another doubt; inactive = no such curve, though single readings can be large or run the other way. No potency is given beside an inconclusive call; the fits are too rough. Non-standard residues stand in square brackets, D forms with d. Residues, ends and D or L forms follow the SMILES beside them. NMeY = CN[C@@H](Cc1ccc(O)cc1)C(=O)O; NMeF = CN[C@@H](Cc1ccccc1)C(=O)O; 2Abz = Nc1ccccc1C(=O)O", "data": [{"assay": "Primary qHTS for delayed death inhibitors of the malarial parasite plastid, 48 hour incubation; note: potency is the fitted concentration of half-maximal effect; tags give direction and shape of the fitted curve; for activity change, negative = inhibition: % is set by controls: 0 for no effect and ±100 for the full control effect", "details": "P. falciparum luciferase growth in erythrocytes; series mostly up to 28.7 µM; activity change, negative = inhibition: at the top concentration", "outline": "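Here the parasites carry a stable luciferase gene and grow inside erythrocytes in Albumax-based RPMI medium with compound for one erythrocytic cycle. Activity is scored as loss of luminescent signal.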", "values": [{"smiles": "CCOC(=O)C(C#N)C(c1cccnc1)c1c(C)[nH][nH]c1=O", "note": "(centres undefined)", "Potency": "inconclusive [inhibitor, partial curve, poor fit]"}, {"smiles": "Nc1ccccc1NC(=O)NC(=O)c1ccccc1", "activity change, negative = inhibition": "inactive: 91.5%"}, {"smiles": "CCCn1nnc(NC(=O)c2ccccc2Cl)n1", "activity change, negative = inhibition": "inactive: 86.6%"}, {"smiles": "CCCC1C2CN(C(C)C)CC=C2C(C#N)=C(N)C1(C#N)C#N", "note": "(centres undefined)", "activity change, negative = inhibition": "inactive: -25%"}, {"smiles": "Cc1ccc(Cl)cc1N1CCN(C(=O)C(C)n2ncn3cccc3c2=O)CC1", "note": "(centres undefined)", "activity change, negative = inhibition": "inactive: -7.23%"}, {"smiles": "CC(C)COc1ccc(C(=O)N/C(=C\\c2cccc([N+](=O)[O-])c2)C(=O)O)cc1", "activity change, negative = inhibition": "inactive: -6.59%"}, {"smiles": "CC(C)n1cc(/C=C/c2cc[n+](C)cc2)c2ccccc21", "Potency": "active: 0.522 µM"}, {"smiles": "COc1ccc(OCC2c3cc(OC)c(OC)cc3CCN2C(=O)C(C)C)cc1", "note": "(centres undefined)", "Potency": "inconclusive [inhibitor, single point]"}, {"smiles": "COc1ccc(CN2C(=O)c3cccc4cccc(c34)C2=O)cc1", "Potency": "inconclusive [inhibitor, single point]"}, {"smiles": "CCCCn1c(=O)c(C=Nc2cc([N+](=O)[O-])ccc2OC)c(O)n(CCCCl)c1=O", "Potency": "inconclusive [inhibitor, partial curve, poor fit]"}, {"smiles": "CCOc1ccccc1C(=O)NCC(=O)N1CCN(Cc2ccc3c(c2)OCO3)CC1", "Potency": "inconclusive [inhibitor, single point]"}, {"smiles": "COc1ccccc1OCc1cc(C(=O)N2CC3C[C@@H]4CC2C[C@H](C3)C4)no1", "Potency": "inconclusive [inhibitor, single point]"}, {"smiles": "CCN(CCNC(=O)C1CCCN(Cc2nc(-c3ccc(OC)cc3)oc2C)C1)c1ccccc1", "note": "(centres undefined)", "Potency": "active: 5.22 µM"}, {"smiles": "O=C(CSc1nnnn1-c1ccc(Cl)c(C(=O)O)c1)NC(c1ccccc1)c1ccccc1", "Potency": "inconclusive [inhibitor, partial curve]"}, {"smiles": "Cc1ccc(S(=O)(=O)N2CCN(c3c([N+](=O)[O-])cc(C(F)(F)F)cc3[N+](=O)[O-])CC2)cc1", "Potency": "inconclusive [inhibitor, single point]"}, {"smiles": "Cc1ccc(NS(=O)(=O)c2ccc3[nH]c(=O)oc3c2)cc1Cl", "Potency": "inconclusive [inhibitor, single point]"}, {"smiles": "CCOn1c(=O)c(-c2cc(OC)ccc2OC)[n+]([O-])c2ccccc21", "activity change, negative = inhibition": "inactive: -54.3%"}, {"smiles": "O=C(Cn1cc(C(=O)c2ccco2)c2ccccc21)NCc1ccco1", "activity change, negative = inhibition": "inactive: -9.85%"}, {"smiles": "COc1ccc(C)cc1N(C(=O)COc1cccc(F)c1)c1nc2ccccc2s1", "Potency": "active: 0.738 µM"}, {"smiles": "CC(C)n1ncc2c(C(=O)Nc3cccc(C#N)c3)cc(C3CC3)nc21", "Potency": "active: 6.57 µM"}, {"smiles": "CC1(C)Cc2c(c(N3CCOCC3)nc3snc(Br)c23)CO1", "Potency": "active: 0.522 µM"}, {"smiles": "CCCCCCCCCC[n+]1cccc2c3ccccc3ccc21", "Potency": "active: 2.08 µM"}, {"smiles": "COCCNC(=S)NN=C1CCCCCC1", "Potency": "inconclusive [inhibitor, single point]"}, {"smiles": "Cc1ccc(CCNC(=O)C2CCN(S(=O)(=O)c3cccc4cccnc34)CC2)cc1", "Potency": "inconclusive [inhibitor, single point]"}, {"smiles": "CCN(CC)CCCNC(=O)C1CCC(CNS(=O)(=O)c2ccc(Cl)cc2)CC1", "note": "(centres undefined)", "activity change, negative = inhibition": "inactive: 5.31%"}, {"smiles": "CCC(CO)Nc1ccc(-c2n[nH]c(=O)c3ccccc23)cc1[N+](=O)[O-]", "note": "(centres undefined)", "Potency": "inconclusive [inhibitor, partial curve]"}, {"smiles": "O=c1c2ccccc2oc2cc(OCc3ccc(F)cc3)cc(O)c12", "activity change, negative = inhibition": "inactive: 12.1%"}, {"smiles": "Cn1c(C(C(=O)NCC2CCCO2)N(C(=O)Cn2nnc3ccccc32)C2CCCCC2)nc2ccccc21", "note": "(centres undefined)", "Potency": "inconclusive [inhibitor, single point]"}, {"smiles": "O=C(Cn1c2[n+](c3ccc(C(F)(F)F)cc31)CCCCC2)c1cccc([N+](=O)[O-])c1", "Potency": "active: 14.7 µM"}, {"smiles": "NC(=O)c1c[nH]c2ccccc12", "Potency": "inconclusive [inhibitor, full curve, poor fit]"}, {"smiles": "CC(C)C[C@@H]1NC(=O)[C@H](Cc2ccccc2)N(C)C(=O)[C@H](C)NC(=O)c2ccccc2NC(=O)[C@H](Cc2ccc(O)cc2)N(C)C1=O", "note": "(cyclo([2Abz]A[NMeF]L[NMeY]))", "Potency": "active: 3.7 µM"}, {"smiles": "COC(=O)C1=CN(C2CCCCC2)C=C(C(=O)OC)C1c1ccc2c(c1)OCO2", "Potency": "inconclusive [inhibitor, full curve]"}, {"smiles": "COc1ccc(C(=O)NC(=S)NNC(=O)c2ccco2)cc1", "activity change, negative = inhibition": "inactive: -40%"}, {"smiles": "CCn1c2c(c(=N)c3c1CCC3)CCCC2", "Potency": "active: 0.522 µM"}, {"smiles": "CCSc1nnc(NC(=O)CCn2c(=O)oc3ccccc32)s1", "activity change, negative = inhibition": "inactive: -0.268%"}, {"smiles": "Cc1nc(N)c(Cc2ccc(Cl)cc2Cl)c(N)n1", "activity change, negative = inhibition": "inactive: 441%"}, {"smiles": "CCn1ncc(C2=NOC(C(=O)NCc3ccc(OC)cc3)C2)c1C", "note": "(centres undefined)", "Potency": "inconclusive [inhibitor, partial curve, poor fit]"}, {"smiles": "Cc1ccc(C(=O)N/C(=C\\c2ccc(-c3ccccc3[N+](=O)[O-])o2)C(=O)NCCCN2CCOCC2)cc1", "Potency": "active: 1.85 µM"}, {"smiles": "CCOc1cc(/C=C2\\C(=N)N3N=C(C)SC3=NC2=O)ccc1OCCOc1cccc(OC)c1", "Potency": "inconclusive [inhibitor, full curve, poor fit]"}, {"smiles": "N/C(Cc1ccc(Cl)cc1Cl)=N\\OC(=O)c1ccccc1", "Potency": "inconclusive [inhibitor, partial curve, poor fit]"}, {"smiles": "O=C1/C(=C/c2ccncc2)SC(=S)N1Nc1ccccc1", "Potency": "active: 8.28 µM"}, {"smiles": "CCOc1ccc(Cc2nc(N)nc(N)n2)cc1", "Potency": "inconclusive [inhibitor, partial curve]"}, {"smiles": "O=C(CNC(=O)c1ccccc1)N/N=C/c1cc(Br)ccc1O", "Potency": "inconclusive [inhibitor, single point]"}, {"smiles": "Cc1ccc(C(=O)COC(=O)CCS(=O)(=O)c2ccccc2)cc1[N+](=O)[O-]", "Potency": "inconclusive [inhibitor, single point]"}, {"smiles": "CC1=CC(=O)c2c(O)ccc(O)c2C1=O", "Potency": "inconclusive [inhibitor, full curve, poor fit]"}, {"smiles": "Cc1ccc(C(=O)CCC(=O)OC(C)C(=O)NC2CCCCC2C)cc1", "note": "(centres undefined)", "Potency": "inconclusive [inhibitor, single point]"}, {"smiles": "O=C(Nc1cccc(S(=O)(=O)N2CCCC2)c1)C1CCCN1C(=O)c1cccs1", "note": "(centres undefined)", "Potency": "inconclusive [inhibitor, single point]"}, {"smiles": "COc1ccc(-n2nc(C(=O)NCC(=O)N3CCN(Cc4ccccc4)CC3)c3ccccc3c2=O)cc1OC", "Potency": "inconclusive [inhibitor, full curve, poor fit]"}, {"smiles": "COc1ccc2c(c1)CCN1C2CCN2C(=O)CCC21", "note": "(centres undefined)", "activity change, negative = inhibition": "inactive: 43.4%"}, {"smiles": "Nc1cc(S(=O)(=O)N2CCCCC2)ccc1N1CCCCC1", "Potency": "inconclusive [inhibitor, single point]"}, {"smiles": "CCOC(=O)C1CCCN(C(=O)c2cc(-c3ccc(C)cc3)on2)C1", "note": "(centres undefined)", "activity change, negative = inhibition": "inactive: 83.5%"}, {"smiles": "COC(=O)c1c(C)[nH]c(O)c1C=Nc1ccc(C#N)cc1", "activity change, negative = inhibition": "inactive: 34.4% [at 1.15 µM]"}, {"smiles": "O=C(c1cccc2ccccc12)N1CCC(N2CCN(c3ccccc3)CC2)CC1", "Potency": "inconclusive [inhibitor, partial curve]"}, {"smiles": "CCOC(=O)C1CCCN(S(=O)(=O)c2ccc3c4c2CC(=O)N4CC(C)S3)C1", "note": "(centres undefined)", "Potency": "inconclusive [inhibitor, partial curve, poor fit]"}, {"smiles": "O=[N+]([O-])c1cc(S(=O)(=O)C(F)(F)F)ccc1Sc1nc2ccccc2[nH]1", "Potency": "active: 14.7 µM"}, {"smiles": "N#Cc1c(SCC(=O)O)nc(-c2ccccc2)c2c1CCCC2", "activity change, negative = inhibition": "inactive: 19.8%"}, {"smiles": "Cc1nc(NC(=O)CSc2ccccc2N)sc1C", "activity change, negative = inhibition": "inactive: 28%"}, {"smiles": "COc1ccc(-c2[nH]n(-c3ccc([N+](=O)[O-])cc3)c(=O)c2C=NCC2CCCO2)cc1", "note": "(centres undefined)", "Potency": "inconclusive [inhibitor, full curve]"}, {"smiles": "CC1CN(C(=O)c2cc(S(=O)(=O)N3CCCC3)c(Cl)cc2Cl)CC(C)O1", "note": "(centres undefined)", "Potency": "inconclusive [inhibitor, single point]"}, {"smiles": "CCN(C(=O)c1cc2c(=O)[nH]c3ccc(C)cc3c2s1)c1ccc(F)cc1", "Potency": "inconclusive [inhibitor, full curve, poor fit]"}, {"smiles": "Cc1ccc2c(c1)C(CCN)C(=O)N2Cc1ccccc1", "note": "(centres undefined)", "Potency": "inconclusive [inhibitor, single point]"}, {"smiles": "CC(=O)Nc1cc(C(=O)NCCN2CCN(Cc3ccccc3)CC2)ccc1Sc1ccc(C)cc1", "Potency": "inconclusive [inhibitor, single point]"}, {"smiles": "O=[N+]([O-])c1cc(S(=O)(=O)N2CCCC2)ccc1O", "Potency": "inconclusive [inhibitor, partial curve, poor fit]"}, {"smiles": "Cc1ccccc1Cn1c(=N)n(CC(=O)c2ccc([N+](=O)[O-])cc2)c2ccccc21", "Potency": "inconclusive [inhibitor, full curve, poor fit]"}, {"smiles": "O=C(c1ccco1)N(CCCN1CCOCC1)c1nc(-c2ccc(F)cc2)cs1", "Potency": "inconclusive [inhibitor, partial curve]"}, {"smiles": "O=C(Nc1ccc(NC(=S)NC(=O)c2cccs2)cc1)c1ccco1", "Potency": "inconclusive [inhibitor, partial curve, poor fit]"}, {"smiles": "CCCc1n(CC)c2ccccc2[n+]1CC(O)COC1CCCCC1", "note": "(centres undefined)", "Potency": "inconclusive [inhibitor, partial curve]"}, {"smiles": "Cc1cc(C(=O)Nc2cccnc2)on1", "activity change, negative = inhibition": "inactive: 6.6%"}, {"smiles": "CCOc1ccc(NC(=O)C2CCN(C(=O)N3CCOc4ccccc43)CC2)cc1", "Potency": "inconclusive [inhibitor, single point]"}]}]}
